The other results are listed elsewhere or left out. The list includes weakly bound sequences.

In the test the target is T1, MBP-FoxP3dN (UniProt Q99JB6).
T1 sequence: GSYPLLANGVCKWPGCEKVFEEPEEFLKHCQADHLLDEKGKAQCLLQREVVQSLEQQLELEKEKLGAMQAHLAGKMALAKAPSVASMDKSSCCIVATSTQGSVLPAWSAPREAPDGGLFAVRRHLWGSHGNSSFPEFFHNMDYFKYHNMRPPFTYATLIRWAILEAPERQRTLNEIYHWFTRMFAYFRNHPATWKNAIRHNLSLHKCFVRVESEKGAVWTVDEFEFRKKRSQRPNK
Put plainly: PD-seq (MBP pull-down with sequencing). To be noted: 20 mM Tris-HCl pH 7.5, 100 mM NaCl, 1.5 mM MgCl2, 0.4 uM protein, 0.1 uM dsDNA library, 30 min, room temperature, amylose pull-down; high values mean tight binding; double strand, one strand shown.
Consider “GATGATTGTTCTCCCAGCTGATGAATTGCGCGCTTCGAGTAAACAAATTTTCCTAATCTTTCTGTTCAAGCGCCATCTAC”, for which the binding signal (RPM ratio (pull-down/input)) came to 1.58.
Then “GATGATTGTTCTCCCAGCTGATGAATTCTCAGCATCGAGTAAACAAATTTTCCTAATCTTTCTGTTCAAGCGCCATCTAC”, with 0.635.
Then “GATGATTGTTCTCCCAGCTGATGAATTGTAAAATTCGAGTAAACAAATTTTCCTAATCTTTCTGTTCAAGCGCCATCTAC”, with 0.231; and “GATGATTGTTCTCCCAGCTGATGAATTAAGAAGATCGAGTAAACAAATTTTCCTAATCTTTCTGTTCAAGCGCCATCTAC”, with 0.196.
On to “GATGATTGTTCTCCCAGCTGATGAATTTGCAGCCTCGAGTAAACAAATTTTCCTAATCTTTCTGTTCAAGCGCCATCTAC”, for which the binding signal (RPM ratio (pull-down/input)) was found to be 1.27.
In the case of “GATGATTGTTCTCCCAGCTGATGAATTATAGATCTCGAGTAAACAAATTTTCCTAATCTTTCTGTTCAAGCGCCATCTAC” it was 0.352; in that of “GATGATTGTTCTCCCAGCTGATGAATTGAAGGTTTCGAGTAAACAAATTTTCCTAATCTTTCTGTTCAAGCGCCATCTAC”, 0.397.
In the case of “GATGATTGTTCTCCCAGCTGATGAATTATAATACTCGAGTAAACAAATTTTCCTAATCTTTCTGTTCAAGCGCCATCTAC” it was 0.58; in that of “GATGATTGTTCTCCCAGCTGATGAATTCCGGGTCTCGAGTAAACAAATTTTCCTAATCTTTCTGTTCAAGCGCCATCTAC”, 0.568; in that of “GATGATTGTTCTCCCAGCTGATGAATTCAGCTCATCGAGTAAACAAATTTTCCTAATCTTTCTGTTCAAGCGCCATCTAC”, 0.381.
Take “GATGATTGTTCTCCCAGCTGATGAATTGTGGCTCTCGAGTAAACAAATTTTCCTAATCTTTCTGTTCAAGCGCCATCTAC”: the binding signal (RPM ratio (pull-down/input)) turned out to be 1.32.
In the case of “GATGATTGTTCTCCCAGCTGATGAATTGCGAGCTTCGAGTAAACAAATTTTCCTAATCTTTCTGTTCAAGCGCCATCTAC” it was 0.653; in that of “GATGATTGTTCTCCCAGCTGATGAATTTGAAAAGTCGAGTAAACAAATTTTCCTAATCTTTCTGTTCAAGCGCCATCTAC”, 0.145.
Then “GATGATTGTTCTCCCAGCTGATGAATTTCCCTCCTCGAGTAAACAAATTTTCCTAATCTTTCTGTTCAAGCGCCATCTAC”, with 0.247.
In the case of “GATGATTGTTCTCCCAGCTGATGAATTTCATTCATCGAGTAAACAAATTTTCCTAATCTTTCTGTTCAAGCGCCATCTAC” it was 0.531; in that of “GATGATTGTTCTCCCAGCTGATGAATTATCCGGTTCGAGTAAACAAATTTTCCTAATCTTTCTGTTCAAGCGCCATCTAC”, 0.237.
As to “GATGATTGTTCTCCCAGCTGATGAATTCCAGTAATCGAGTAAACAAATTTTCCTAATCTTTCTGTTCAAGCGCCATCTAC”, the binding signal (RPM ratio (pull-down/input)) turned out to be 0.477.
Then “GATGATTGTTCTCCCAGCTGATGAATTGTTCCTCTCGAGTAAACAAATTTTCCTAATCTTTCTGTTCAAGCGCCATCTAC”, with 0.416; and “GATGATTGTTCTCCCAGCTGATGAATTAGCCATCTCGAGTAAACAAATTTTCCTAATCTTTCTGTTCAAGCGCCATCTAC”, with 0.956.
In the case of “GATGATTGTTCTCCCAGCTGATGAATTTCATGCTTCGAGTAAACAAATTTTCCTAATCTTTCTGTTCAAGCGCCATCTAC” it was 0.528; in that of “GATGATTGTTCTCCCAGCTGATGAATTCTGTCCGTCGAGTAAACAAATTTTCCTAATCTTTCTGTTCAAGCGCCATCTAC”, 0.458.
For the sequence “GATGATTGTTCTCCCAGCTGATGAATTCAGACACTCGAGTAAACAAATTTTCCTAATCTTTCTGTTCAAGCGCCATCTAC”, the binding signal (RPM ratio (pull-down/input)) was found to be 1.16.
In the case of “GATGATTGTTCTCCCAGCTGATGAATTGTAATTGTCGAGTAAACAAATTTTCCTAATCTTTCTGTTCAAGCGCCATCTAC”, the binding signal (RPM ratio (pull-down/input)) worked out at 2.31.
Regarding “GATGATTGTTCTCCCAGCTGATGAATTGGGAGCGTCGAGTAAACAAATTTTCCTAATCTTTCTGTTCAAGCGCCATCTAC”, the binding signal (RPM ratio (pull-down/input)) came to 0.449.
In the case of “GATGATTGTTCTCCCAGCTGATGAATTCAGAGATTCGAGTAAACAAATTTTCCTAATCTTTCTGTTCAAGCGCCATCTAC” it was 0.313; in that of “GATGATTGTTCTCCCAGCTGATGAATTGACGCGCTCGAGTAAACAAATTTTCCTAATCTTTCTGTTCAAGCGCCATCTAC”, 0.836.
In the case of “GATGATTGTTCTCCCAGCTGATGAATTATAAACATCGAGTAAACAAATTTTCCTAATCTTTCTGTTCAAGCGCCATCTAC” it was 2.69; in that of “GATGATTGTTCTCCCAGCTGATGAATTGTTGGCCTCGAGTAAACAAATTTTCCTAATCTTTCTGTTCAAGCGCCATCTAC”, 2.11; in that of “GATGATTGTTCTCCCAGCTGATGAATTTTCCTCATCGAGTAAACAAATTTTCCTAATCTTTCTGTTCAAGCGCCATCTAC”, 0.224.
Then “GATGATTGTTCTCCCAGCTGATGAATTGGAAACCTCGAGTAAACAAATTTTCCTAATCTTTCTGTTCAAGCGCCATCTAC”, with 0.23; and “GATGATTGTTCTCCCAGCTGATGAATTGCAATCGTCGAGTAAACAAATTTTCCTAATCTTTCTGTTCAAGCGCCATCTAC”, with 1.72; and “GATGATTGTTCTCCCAGCTGATGAATTACATAATTCGAGTAAACAAATTTTCCTAATCTTTCTGTTCAAGCGCCATCTAC”, with 0.49.
Consider “GATGATTGTTCTCCCAGCTGATGAATTAAACAAGTCGAGTAAACAAATTTTCCTAATCTTTCTGTTCAAGCGCCATCTAC”, for which the binding signal (RPM ratio (pull-down/input)) stood at 0.682.
Then “GATGATTGTTCTCCCAGCTGATGAATTACAATAGTCGAGTAAACAAATTTTCCTAATCTTTCTGTTCAAGCGCCATCTAC”, with 0.704.
In the case of “GATGATTGTTCTCCCAGCTGATGAATTATTTCTGTCGAGTAAACAAATTTTCCTAATCTTTCTGTTCAAGCGCCATCTAC” it was 0.335; in that of “GATGATTGTTCTCCCAGCTGATGAATTTTTCGGATCGAGTAAACAAATTTTCCTAATCTTTCTGTTCAAGCGCCATCTAC”, 0.156; in that of “GATGATTGTTCTCCCAGCTGATGAATTCGGCGAATCGAGTAAACAAATTTTCCTAATCTTTCTGTTCAAGCGCCATCTAC”, 0.281.
With “GATGATTGTTCTCCCAGCTGATGAATTTACTGGGTCGAGTAAACAAATTTTCCTAATCTTTCTGTTCAAGCGCCATCTAC”, the binding signal (RPM ratio (pull-down/input)) came out at 0.463.
Then “GATGATTGTTCTCCCAGCTGATGAATTATGAAACTCGAGTAAACAAATTTTCCTAATCTTTCTGTTCAAGCGCCATCTAC”, with 0.828.
As to “GATGATTGTTCTCCCAGCTGATGAATTGCGTCCGTCGAGTAAACAAATTTTCCTAATCTTTCTGTTCAAGCGCCATCTAC”, the binding signal (RPM ratio (pull-down/input)) was 0.931.

The values above are taken from paper PMC12820563.
